Values of other authors, collected in patent US6010890A, “Method for viral inactivation and compositions for use in same” (New York Blood Center, Inc., priority 1997, dated 2000).

System: HIV
Conditions: cited from earlier work

CN(C)CCC[Si](C)(C)O[Si]1(O)n2c3c4ccccc4c2N=C2N=C(N=c4c5ccccc5c(n41)=NC1=NC(=N3)c3ccccc31)c1ccccc12 (stereo not shown) [Pc4, hydroxysiloxydimethylpropyl-N-dimethyl silicon phthalocyanine]
inactivation of HIV in its multiple forms, among phthalocyanines: most effective
